In all, about 33,000 sequences were measured (“E-score (-0.5 to 0.5)”: median about -0.013, highest 2% from about 0.3 on). Some of the results follow.
What follows are sequences tested against T1, Msn1 (UniProt P22148) (assay: PBM E-score (8-mer binding enrichment) (E-score (-0.5 to 0.5)); higher = stronger / more preferred TF binding; most listed sequences are background and not binding sites). Conditions: protein concentration: 200 nM; construct: GST-full length.
T1 sequence: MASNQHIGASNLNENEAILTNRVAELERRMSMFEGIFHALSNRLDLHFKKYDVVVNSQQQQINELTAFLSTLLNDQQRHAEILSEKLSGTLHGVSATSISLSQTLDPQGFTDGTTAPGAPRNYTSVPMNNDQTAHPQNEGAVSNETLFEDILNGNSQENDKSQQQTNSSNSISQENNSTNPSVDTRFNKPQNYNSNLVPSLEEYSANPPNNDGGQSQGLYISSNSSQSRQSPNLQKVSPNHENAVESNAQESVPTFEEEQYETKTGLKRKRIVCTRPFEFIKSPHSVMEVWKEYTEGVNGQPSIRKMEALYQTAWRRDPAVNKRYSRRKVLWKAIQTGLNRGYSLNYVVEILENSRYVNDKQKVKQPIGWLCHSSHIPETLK
How it was run: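 Universal all-10-mer Agilent arrays, double-stranded by primer extension on fresh or once-stripped slides, were probed with about 100-200 nM GST-tagged yeast transcription factors made by PURExpress. Fluorescent anti-GST detected bound protein, and masliner normalised the scans. E-scores from the Universal PBM Analysis Suite were given to each ungapped eight-base word pooled with its reverse complement.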

Row | Sequence | PBM E-score
1 | ACTGGTCT | -0.25
2 | CGCAGTTA | 0.0767
3 | AATAAGCC | -0.018
4 | CCGCCTGA | -0.154
5 | ATGAGCAT | 0.017
6 | AACCGACC | -0.0206
7 | GAATAACC | -0.158
8 | ATGCTGAG | -0.236
9 | CAACGCAG | -0.182
10 | GCCTGAAA | -0.0168
11 | GCGCACCC | -0.15
12 | ACACACGG | 0.0261
13 | GGGCGCCC | -0.0539
14 | CGTCGGAG | 0.00341
15 | CTAATGCA | 0.137
16 | ATAAACCG | 0.0472
17 | CACGTCTC | -0.0251
18 | GTAGCCGA | -0.264
19 | CACCTGCA | -0.0399
20 | ACAGACGC | 0.00941
21 | ACCCTTTC | -0.0752
22 | GAACGTGA | 0.0469
23 | GCCTCGTA | 0.107
24 | CATGCTAA | -0.0237
25 | GACGCTCC | -0.253

Row | Sequence | PBM E-score
26 | ATCAAAAG | 0.169
27 | CTAATATA | 0.224
28 | AAGACGCC | 0.0234
29 | AGGCCAGG | -0.101
30 | CTGTCAAG | -0.104
31 | CCTCAAAA | 0.00278
32 | GCTTTACC | -0.00166
33 | CTGACAAG | 0.161
34 | GGAACCCC | -0.334
35 | TAACTGGA | 0.0495
36 | GCCGTGCA | -0.0435
37 | GGCCTACC | -0.159
38 | ATGAGTAC | 0.143
39 | CCTAGGTC | -0.0456
40 | CCTCGTAC | 0.0851
41 | AACTTTTA | 0.0848
42 | ATTGCCCC | -0.115
43 | CCAGGCCC | -0.214
44 | CCTACTAC | -0.075
45 | ACATCACA | -0.00199
46 | AACTACTA | 0.265
47 | GCGTCAGA | -0.0619
48 | GCCGATTA | -0.0616
49 | AGAAACAG | -0.0654
50 | CAGAGTGG | 0.0256

Row | Sequence | PBM E-score
51 | GATTACCA | -0.109
52 | CATTAGGG | 0.0376
53 | AAAGTAGT | -0.0142
54 | AGACGCCT | -0.191
55 | ACGTAGTG | -0.0424
56 | TCAATCGA | -0.00235
57 | ATCCCAAA | 0.177
58 | AACAGGAC | 0.164
59 | AACCGCCG | -0.0276
60 | AGACAATG | 0.295
61 | ACGATCGG | 0.0315
62 | CCTGAGAC | 0.0271
63 | CGCCGTTC | 0.132
64 | CATATATA | 0.148
65 | GAGCTACA | -0.197
66 | AGGGACCC | -0.214
67 | AGTAAAGC | 0.00604
68 | TCCTTTCA | -0.0192
69 | AGGTGTCC | 0.263
70 | AAGAAAGT | 0.166
71 | ACTCTATA | 0.0909
72 | CATCGTAA | -0.0235
73 | GGTCATCA | -0.0166
74 | ACTCACGC | -0.0957
75 | AAATGCGC | 0.208

Row | Sequence | PBM E-score
76 | GTGCAATA | -0.0751
77 | AACCGTTA | -0.0453
78 | GACCCATA | -0.155
79 | GATAATGA | 0.2
80 | CCACTACA | -0.133
81 | CATTGCTA | 0.138
82 | CCTCTTAA | 0.0412
83 | AGGGAGAA | -0.259
84 | CAACCAAA | 0.209
85 | ACAAGTAG | -0.0149
86 | AACTCTAC | -0.169
87 | CGTAAGTA | 0.0282
88 | AGATAAGC | -0.0908
89 | CTCACATC | -0.0961
90 | CCCAAAGG | -0.0925
91 | AAGGTCTG | -0.071
92 | ATTTCGCA | 0.201
93 | CCAATTCG | -0.0466
94 | AGTAAGCC | -0.197
95 | ATTGTGGG | 0.107
96 | GCAGTCCA | -0.0815
97 | AGCGCGAT | -0.0183
98 | GACCGCAC | -0.142
99 | CTTATCGC | 0.0123
100 | TGGCACCA | -0.0529

Row | Sequence | PBM E-score
101 | ACGGTTCC | 0.0872
102 | ATGCGCCA | -0.0261
103 | AGACGTTC | 0.0892
104 | ACCTAAAG | 0.0937
105 | CCAAACCG | -0.101
106 | GTCAAGAC | 0.067
107 | GCTCCGAC | -0.0368
108 | ATTCTGCA | 0.0782
109 | ATCTGGGC | -0.24
110 | ATCGACTA | -0.122
111 | CAAGATGA | -0.175
112 | ACCCAAGG | -0.0287
113 | TAACGGGA | -0.0643
114 | TATCAGCA | 0.138
115 | CTGTAATC | 0.00924
116 | AGAGATCA | -0.119
117 | ATCGAAAT | -0.151
118 | ACGGAACT | 0.068
119 | CAAGTTCG | -0.0423
120 | ACTCCGTA | -0.0523
121 | AGACCAGC | -0.172
122 | ATATGTAA | 0.131
123 | ATAATGGG | -0.0747
124 | CAAGATAA | 0.324
125 | CGGACGAC | -0.0607

Row | Sequence | PBM E-score
126 | CTAAACTC | 0.0416
127 | TCATTACA | 0.209
128 | ATTACATA | -0.0111
129 | AGATTACT | 0.00355
130 | CGGGCAGA | 0.065
131 | CACTCAAA | 0.196
132 | GAACAACA | -0.0172
133 | AGAAGACG | 0.118
134 | CTTTCTAC | -0.079
135 | CAGTGCGG | -0.0726
136 | TGAATGAA | 0.0496
137 | CGACTTTA | 0.201
138 | ATATCAGC | -0.0193
139 | GGGCAATA | -0.0349
140 | AACGTGTA | -0.0696
141 | AAAGACGG | -0.0787
142 | GCGGTGTA | -0.00829
143 | CTAGAAAG | 0.0102
144 | AGATACCT | -0.0491
145 | CAGGTTCC | -0.265
146 | AGCTCAGA | -0.147
147 | ACTTGGCC | -0.125
148 | GGTCTTAC | -0.0649
149 | ACGCACCT | -0.208
150 | AATATGGA | 0.118

Row | Sequence | PBM E-score
151 | CACCCCGC | -0.0608
152 | ATACAGCC | -0.0211
153 | ATTGAGGC | -0.0229
154 | CATGGTTC | 0.087
155 | CTTGTGAC | -0.0656
156 | ATGGACCG | -0.16
157 | CCATACCA | 0.0887
158 | CATCAATC | -0.122
159 | AGTGTGTG | -0.125
160 | GAGGAACC | -0.0449
161 | AACTGGAA | 0.00546
162 | CGCCTTCA | -0.296
163 | CCGCTTGC | -0.163
164 | TGCTAGCA | -0.107
165 | GCACACTA | -0.0794
166 | CGCTTCTA | 0.135
167 | CCCGAAGG | -0.0932
168 | GCGTTTAA | -0.00948
169 | CCGCCTTC | -0.343
170 | AAGTGCGA | -0.327
171 | CCACTGTC | -0.167
172 | AGTTAAAG | 0.0697

Reference: the supplement of paper PMC3334620
